The supplement of paper PMC3334620
Over roughly 33,000 sequences, “E-score (-0.5 to 0.5)” has its median near -0.035; the highest 2% begin near 0.35. This is one part of the list.

Each sequence was assayed against T1, Pdr3 (UniProt P33200) (assay: PBM E-score (8-mer binding enrichment) (E-score (-0.5 to 0.5)); higher = stronger / more preferred TF binding; most listed sequences are background and not binding sites). Conditions: protein concentration: 200 nM; construct: GST-full length.
T1 sequence: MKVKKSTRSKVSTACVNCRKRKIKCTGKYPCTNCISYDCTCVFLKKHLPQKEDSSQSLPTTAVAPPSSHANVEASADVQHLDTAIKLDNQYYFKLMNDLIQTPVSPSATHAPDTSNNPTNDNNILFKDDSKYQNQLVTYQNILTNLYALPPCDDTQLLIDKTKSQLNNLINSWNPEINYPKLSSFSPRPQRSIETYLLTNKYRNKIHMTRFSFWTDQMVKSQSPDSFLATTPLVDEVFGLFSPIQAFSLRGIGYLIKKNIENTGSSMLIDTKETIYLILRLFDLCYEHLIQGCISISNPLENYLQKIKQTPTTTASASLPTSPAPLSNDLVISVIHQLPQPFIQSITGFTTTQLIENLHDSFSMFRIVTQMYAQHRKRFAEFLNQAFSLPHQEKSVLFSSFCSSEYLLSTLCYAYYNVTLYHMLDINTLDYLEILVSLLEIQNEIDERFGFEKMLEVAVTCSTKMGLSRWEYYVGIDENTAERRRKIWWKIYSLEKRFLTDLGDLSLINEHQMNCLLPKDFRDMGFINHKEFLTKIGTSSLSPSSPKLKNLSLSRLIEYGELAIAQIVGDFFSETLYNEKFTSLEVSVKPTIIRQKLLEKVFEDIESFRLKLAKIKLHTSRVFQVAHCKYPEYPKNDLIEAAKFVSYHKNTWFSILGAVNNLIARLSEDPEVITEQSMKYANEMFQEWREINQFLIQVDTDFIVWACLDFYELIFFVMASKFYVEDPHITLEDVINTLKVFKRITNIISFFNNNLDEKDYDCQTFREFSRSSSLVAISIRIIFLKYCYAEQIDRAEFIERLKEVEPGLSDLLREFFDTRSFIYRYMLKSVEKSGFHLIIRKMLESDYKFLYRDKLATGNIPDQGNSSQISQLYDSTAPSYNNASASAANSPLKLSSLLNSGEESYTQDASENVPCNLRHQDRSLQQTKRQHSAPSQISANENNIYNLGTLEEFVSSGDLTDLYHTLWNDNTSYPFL
In short: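 The E-score, a modified Wilcoxon-Mann-Whitney statistic, was computed by the Universal PBM Analysis Suite for every ungapped eight-base word pooled with its reverse complement. Scans behind it were normalised with masliner after bound GST-tagged yeast transcription factors were detected with fluorescent anti-GST. The proteins, at about 100-200 nM, had been applied to universal all-10-mer Agilent arrays made double-stranded by primer extension.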

| Sequence | PBM E-score |
| --- | --- |
| GGGCCGGA | 0.318 |
| ACGTACGA | -0.133 |
| ATGGCGAG | -0.123 |
| CAGCCGTA | -0.0833 |
| AGTATGGA | -0.0283 |
| AGCCCGTG | 0.0859 |
| CACGATGA | 0.0147 |
| AATCAGGC | 0.00832 |
| GTTAAAGA | -0.0407 |
| ACCCTCCT | -0.222 |
| GATTGAGC | 0.0166 |
| CAGTAGCA | -0.0689 |
| ATCCAACA | 0.0207 |
| CCTGTATC | 0.026 |
| GCCGAGTA | 0.191 |
| ATGTTGCG | 0.091 |
| CATACTAG | 0.0883 |
| AGATCAAC | -0.0482 |
| AGGTACCA | -0.0974 |
| ATCTAAGC | -0.3 |
| ACGAGGCC | -0.0311 |
| AACGGGGG | -0.142 |

| Sequence | PBM E-score |
| --- | --- |
| ATGGTGTG | -0.197 |
| ACTTCCAC | 0.0382 |
| GCTTTCAC | -0.107 |
| AAGGGAAA | -0.124 |
| CCGAAGCG | 0.228 |
| AGAGTATC | -0.0375 |
| GGCTTACA | -0.0987 |
| TACGTATA | -0.13 |
| AAGGGACA | -0.254 |
| GGATGGCA | 0.228 |
| GGGGCGAA | 0.141 |
| AAAGCAAT | 0.0266 |
| AACACAAC | 0.00023 |
| TGTCCTAA | -0.181 |
| AAATACCA | -0.109 |
| GAAGCTAC | -0.0903 |
| CCCACACG | 0.164 |
| AGGTTTTG | -0.197 |
| CACCCCCG | 0.0245 |
| ACCGGTGA | 0.0804 |
| GCCCTCCA | -0.179 |
| ATCTACCC | 0.179 |

| Sequence | PBM E-score |
| --- | --- |
| CCATTACG | -0.0613 |
| ACAACTCT | -0.166 |
| ACAACTGA | -0.111 |
| ACTGTGCG | 0.0144 |
| ATTGTGTG | -0.041 |
| ACCTCCGA | 0.0535 |
| AACTCAGC | -0.0255 |
| CGTAGGGA | -0.0724 |
| CAATGAAA | -0.107 |
| AGTAACCG | -0.0132 |
| CGTTGGAA | 0.00011 |
| AACATTGC | -0.0931 |
| CCTCCCCA | 0.00142 |
| AGCAAGGG | 0.0741 |
| GAGCCGGA | 0.362 |
| AAAGAACG | 0.108 |
| CTTTGTAA | -0.146 |
| AACGTACC | -0.0537 |
| ACCATTCC | 0.315 |
| ACGGACAG | 0.299 |
| GATACCAC | 0.229 |
| ACGAGCTC | 0.161 |

| Sequence | PBM E-score |
| --- | --- |
| TGTCTGAA | -0.0502 |
| ACGCGAGT | 0.0258 |
| GGTCGACA | -0.0158 |
| CATAGCAG | -0.233 |
| AGATATAG | -0.0232 |
| AGGTCTAG | -0.199 |
| AAGCAAAC | 0.0858 |
| AGTTTTCA | 0.0217 |
| AAGCTTCT | -0.211 |
| AGGATGGG | -0.0155 |
| ATAGTGTA | -0.148 |
| GGGATACC | 0.0837 |
| CACAAGAA | 0.166 |
| ATAATTAT | 0.123 |
| CCTCTACC | -0.104 |
| ACCTTTCT | -0.129 |
| ATAAATGC | -0.0434 |
| CTTGTGCC | -0.11 |
| GTGAATAA | -0.0263 |
| ATGCTTTG | 0.0044 |
